Among all 39,000 compounds or so, about 220 (0.56%) showed activity. This is one part of the list.
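Further: static incubation at 37 °C against the wild-type strain, values averaged over two biological replicates.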

This assay concerns Escherichia coli K-12 BW25113. Briefly: relative growth (OD600 normalised to plate interquartile mean) (fraction); higher = less growth inhibition, active = 0.2 or less. To be noted: 50 µM; LB; incubation time: overnight (16-24 h).
As for `NC(=O)COc1ccccc1`, the relative growth is inactive: 0.995.
To `O=C(C[C@H]1C[C@@H]2c3cc(NC(=O)c4ccc5c(c4)OCO5)ccc3O[C@@H]2[C@H](CO)O1)NCCc1ccccc1` belongs inactive: 0.987; to `COc1cc2c(cc1OC)CN(C(=O)[C@H]1[C@@H]3C(=O)O[C@@H](c4ccccc4)[C@@H](c4ccccc4)N3[C@@H](c3ccc(O)cc3)[C@]13C(=O)Nc1ccc(C#CC4=CCCCC4)cc13)CC2`, inactive: 1.03; to `C[C@@H]1CCCCO[C@H](CN(C)Cc2ccc(C(=O)O)cc2)[C@H](C)CN([C@@H](C)CO)C(=O)c2cc(NC(=O)c3ccccc3)ccc2O1`, inactive: 1.01.
Next, `C[C@@H]1CN([C@@H](C)CO)C(=O)c2cc(NC(=O)CCN3CCOCC3)ccc2O[C@H]1CN(C)Cc1ccncc1`: inactive: 1.01; `C[C@H]1CN([C@@H](C)CO)S(=O)(=O)c2ccc(C3=CCCCC3)cc2O[C@@H]1CN(C)C(=O)C1CCOCC1`: inactive: 1.02; `Cc1noc(C)c1NC(=O)Nc1ccc2c(c1)C(=O)N([C@@H](C)CO)C[C@H](C)[C@@H](CN(C)C(=O)c1ccccc1)OCCCC[C@@H](C)O2`: inactive: 0.989.
To `Cc1noc(C)c1NC(=O)Nc1ccc2c(c1)CC(=O)N([C@@H](C)CO)C[C@H](C)[C@H](CN(C)C(=O)Nc1ccc(C(F)(F)F)cc1)O2` belongs inactive: 0.971.
As to `COc1cc(CO)cc(I)c1O[C@H]1C=C(C(=O)NCCO)C[C@@H](N(Cc2ccc(F)cc2)C(=O)[C@H]2CCCO2)[C@@H]1O`, the relative growth is inactive: 0.997.
Take `CCCNC(=O)Cc1nnc[nH]1`: the relative growth was inactive: 1.02.
`C[C@@H]1CN([C@@H](C)CO)C(=O)c2cccc(NC(=O)c3ccncc3)c2O[C@H]1CN(C)Cc1ccc2c(c1)OCO2`: the relative growth was inactive: 0.991.
As to `COc1ccc(S(=O)(=O)N(C)C[C@@H]2OCCCC[C@@H](C)Oc3ccc(NC(=O)Nc4ccc5c(c4)OCO5)cc3C(=O)N([C@H](C)CO)C[C@@H]2C)cc1`, the relative growth was inactive: 1.05.
On to `COc1cccc(NC(=O)N(C)C[C@H]2OCc3ccccc3-c3c(n(C)c4ccccc34)C(=O)N([C@@H](C)CO)C[C@@H]2C)c1`, for which the relative growth is inactive: 0.985.
To `O=C(C[C@@H]1CC[C@H](NC(=O)c2cnccn2)[C@H](CO)O1)NCc1ccccc1F` belongs inactive: 1.01.
Take `C[C@@H]1CN([C@@H](C)CO)C(=O)c2cc(NC(=O)Nc3ccc4c(c3)OCO4)ccc2O[C@@H](C)CCCCO[C@H]1CN(C)Cc1ccccc1`: the relative growth is inactive: 1.06.
On to `C[C@@H]1CN([C@H](C)CO)C(=O)Cc2cc(NC(=O)Nc3cccc4ccccc34)ccc2O[C@H]1CN(C)C(=O)Nc1ccc2c(c1)OCO2`, for which the relative growth was inactive: 0.975.
As to `COCCNC(=O)[C@H]1[C@H](CO)[C@H]2Cn3c(cccc3=O)[C@@H]1N2S(=O)(=O)c1ccccc1C`, the relative growth is inactive: 0.988.
With `C[C@H](CO)N1C[C@H](C)[C@H](CN(C)Cc2ccncc2)Oc2ccc(NS(=O)(=O)c3ccccc3)cc2C1=O`, the relative growth was inactive: 0.984.
With `COc1ccc(CN(C)C[C@@H]2OCCCC[C@@H](C)Oc3ccc(NC(=O)CCC(F)(F)F)cc3C(=O)N([C@@H](C)CO)C[C@@H]2C)cc1`, the relative growth was inactive: 0.996.
Turning to `Nc1ncn([C@H]2C[C@H](O)[C@@H](CO)O2)c(=O)n1`, the relative growth is inactive: 0.918.
For the molecule `C[C@@H]1CCCCO[C@H](CN(C)C(=O)Nc2ccccc2)[C@H](C)CN([C@H](C)CO)C(=O)c2cc(NC(=O)Nc3ccc(C(F)(F)F)cc3)ccc2O1`, the relative growth is inactive: 1.05.
In the case of `CN(CCO)S(=O)(=O)c1cccc(C(=O)O)c1`, the relative growth was inactive: 1.01.
Regarding `CC1(CN)Cc2ccccc2C1`, the relative growth is inactive: 0.994.
For `C[C@@H]1CN([C@@H](C)CO)C(=O)c2cc(NS(=O)(=O)c3ccccc3)ccc2O[C@@H](C)CCCCO[C@@H]1CN(C)C(=O)CCC(F)(F)F`, the relative growth was inactive: 1.
Take `CCCNC(=O)N1C[C@@H](O)COC[C@H]2O[C@H](CC(=O)NCCCN3CCOCC3)CC[C@@H]21`: the relative growth is inactive: 1.04.
With `CC(C)NC(=O)N(C)C[C@@H]1OCCCC[C@H](C)Oc2ccc(NC(=O)Nc3ccc(C(F)(F)F)cc3)cc2C(=O)N([C@H](C)CO)C[C@@H]1C`, the relative growth is inactive: 1.02.
Next, `C[C@@H]1CCCCO[C@@H](CN(C)Cc2ccc(C(F)(F)F)cc2)[C@@H](C)CN([C@H](C)CO)C(=O)c2cc(NS(=O)(=O)c3ccc(Cl)cc3)ccc2O1`: inactive: 1.05.
Regarding `C[C@H](CO)N1C[C@H](C)[C@H](CN(C)S(=O)(=O)c2cn(C)cn2)Oc2ccc(NC(=O)Nc3ccc(F)cc3)cc2CC1=O`, the relative growth was inactive: 1.01.
As to `COc1ccc(S(=O)(=O)Nc2cccc3c2O[C@H](CN(C)C(=O)Nc2cccc4ccccc24)[C@H](C)CN([C@@H](C)CO)C3=O)cc1`, the relative growth was inactive: 1.
With `Cc1noc(C)c1NC(=O)N(C)C[C@@H]1Oc2ccc(NS(=O)(=O)c3c(C)noc3C)cc2CC(=O)N([C@H](C)CO)C[C@@H]1C`, the relative growth was inactive: 0.992.
Next, `C[C@@H]1CCCCO[C@@H](CN(C)C(=O)CCC(F)(F)F)[C@@H](C)CN([C@@H](C)CO)C(=O)c2cc(NC(=O)c3ccccc3)ccc2O1`: inactive: 1.
Next, `C[C@H]1CN([C@@H](C)CO)C(=O)c2cccc(NC(=O)NC3CCCCC3)c2O[C@H]1CN(C)C(=O)Nc1cccc2ccccc12`: inactive: 1; `CCC(C)C(=O)OC1CC(O)C=C2C=CC(C)C(CCC(O)CC(O)CC(=O)[O-])C21.[Na+]` (stereo not drawn): inactive: 0.893.
With `C[C@H]1CN([C@@H](C)CO)C(=O)c2cccc(NC(=O)C3CCOCC3)c2O[C@@H]1CN(C)C(=O)NC1CCCCC1`, the relative growth was inactive: 0.946.
As for `C[C@@H]1CCCCO[C@H](CN(C)C(=O)C2CCCCC2)[C@@H](C)CN([C@H](C)CO)C(=O)c2cc(NC(=O)Nc3ccc4c(c3)OCO4)ccc2O1`, the relative growth is inactive: 1.05.
Regarding `COc1ccc2c3c(n(c2c1)C)[C@H](CO)N(C[C@]13CN(C1)C(=O)Nc1cccc(c1)F)S(=O)(=O)C`, the relative growth was inactive: 0.991.
As for `C[C@@H]1CN([C@H](C)CO)C(=O)Cc2cc(NC(=O)Cn3cnnn3)ccc2O[C@H]1CN(C)C(=O)NC1CCCCC1`, the relative growth was inactive: 0.988.
To `Cc1nc[nH]c1CN(C)[C@H](C)C(=O)N(C)C` belongs inactive: 1.02.

The values above are taken from the supplement of paper PMC9446081.
